From the supplement of paper PMC8728848 come the findings set out here.

Many of the other results were omitted from the sample, so the strongest signals are more common in it than they were.

The subject of this experiment is Gal(b1-3)[Fuc(a1-4)]GlcNAc(b1-3)Gal(b1-3)[Fuc(a1-4)]GlcNAc. Description: glycan array binding signal (z-score within array); higher = stronger binding. The conditions noted are these: glycan notation: IUPAC condensed, linker removed. The essentials: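 Glycan array data were curated from 3228 arrays in the Consortium for Functional Glycomics database and kept only where the protein sequence was available. Glycan names were converted to IUPAC-condensed notation, and columns mapping to the same glycan were averaged. The binding signal is a within-array Z-score, averaged across arrays of the same protein sequence at different concentrations or buffers and across linkers. Negative Z-scores can be read as non-binding.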
On to “Collectin K1 (Homo sapiens) (chain not printed)”, for which the “glycan array binding signal (z-score)” value is -0.14.
The result for “L-Ficolin (Homo sapiens) (chain not printed)” reads -0.516.
The result for MBP (Homo sapiens) (chain not printed) reads -0.346.
